The chains are these.
B1: CUCCGCA (DNA:RNA)
RNA: GGGAGACCGGAAUUCAGAUUGUCCCUCCGCAUUAAAUCCCGUCGUAGCCACCA
DNA 1: CAATCTGAATTCCGGTCTCCC
DNA 2: TGGTGGCTACGACGGGATT
B2: CCUCCAU (DNA:RNA)
RNA: B1 RNA with U26C, C27U, G29C, C30A, A31U
DNA 1: CAATCTGAATTCCGGTCTCCC
DNA 2: TGGTGGCTACGACGGGATT
B3: CACAUGA (DNA:RNA)
RNA: B1 RNA with U26A, C28A, G29U, C30G
DNA 1: CAATCTGAATTCCGGTCTCCC
DNA 2: TGGTGGCTACGACGGGATT
B4: UCACUCG (DNA:RNA)
RNA: B1 RNA with C25U, U26C, C27A, G29U, A31G
DNA 1: CAATCTGAATTCCGGTCTCCC
DNA 2: TGGTGGCTACGACGGGATT
B5: UCGUUAU (DNA:RNA)
RNA: GGGAGACCGGAAUUCAGAUUGUCCUCGUUAUUUAAAUCCCGUCGUAGCCACCA
DNA 1: CAATCTGAATTCCGGTCTCCC
DNA 2: TGGTGGCTACGACGGGATT
B6: AUGCUAC (DNA:RNA)
RNA: B5 RNA with U25A, C26U, U28C, U31C
DNA 1: CAATCTGAATTCCGGTCTCCC
DNA 2: TGGTGGCTACGACGGGATT
B7: UGUGUGA (DNA:RNA)
RNA: B5 RNA with C26G, G27U, U28G, A30G, U31A
DNA 1: CAATCTGAATTCCGGTCTCCC
DNA 2: TGGTGGCTACGACGGGATT
B8: AGUGCAG (DNA:RNA)
RNA: B5 RNA with U25A, C26G, G27U, U28G, U29C, U31G
DNA 1: CAATCTGAATTCCGGTCTCCC
DNA 2: TGGTGGCTACGACGGGATT
B9: AGGAUGU (DNA:RNA)
RNA: B5 RNA with U25A, C26G, U28A, A30G
DNA 1: CAATCTGAATTCCGGTCTCCC
DNA 2: TGGTGGCTACGACGGGATT

Residue numbers refer to the chain shown, from its start. This is one part of the list.

The assay has as its target T1, RBFOX1 RRM RbFoxmut (Fox-RRM*) (Homo sapiens, UniProt Q9NWB1 109-208, R118D;E147R;N151S;E152T).
T1 sequence: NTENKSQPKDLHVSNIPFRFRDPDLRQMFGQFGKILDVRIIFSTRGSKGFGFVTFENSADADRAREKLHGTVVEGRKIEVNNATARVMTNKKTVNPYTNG
Nature of the assay: EMSA; HiTS-Eq, 1 nM pool, 10 min; buffer printed only for the single-RNA assays: 10 mM Tris pH 7.5, 150 mM NaCl, 3.4 mM EDTA, 0.001% NP-40, 30 C. To be noted: tags: His6 N-terminal (pET28a); label: 5' 32P. The essentials: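 Purified RbFox RRM (wild type or mutant) was equilibrated for 10 min in 50 µL with 1 nM of a 5′-radiolabelled pool of RNA with 7 randomized nucleotides, its flanks annealed to DNA oligonucleotides, across increasing protein concentrations. Free RNA was separated by 8% native PAGE, excised, reverse-transcribed, PCR-barcoded and sequenced on an Illumina HiSeq 2500. Relative association constants came from read-count changes of each variant against the control reaction, normalised to the cognate motif.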
(Mobility shift assays separate free from complexed probe on a gel.)
As to B1, the binding signal was 0.11 KA relative to UGCAUGU.

B2: the binding signal was 0.0807 KA relative to UGCAUGU.

Regarding B3, the binding signal is 0.106 KA relative to UGCAUGU.

With B4, the binding signal is 0.0902 KA relative to UGCAUGU.

B5: the binding signal is 0.11 KA relative to UGCAUGU.

Turning to B6, the binding signal was 0.134 KA relative to UGCAUGU.

Take B7: the binding signal is 0.209 KA relative to UGCAUGU.

Consider B8, for which the binding signal was 0.0945 KA relative to UGCAUGU.

In the case of B9, the binding signal was 0.339 KA relative to UGCAUGU.

(Values after article PMC9911399, “Two distinct binding modes provide the RNA-binding protein RbFox with extraordinary sequence specificity”.)
